The whole screen tested about 310,000 compounds, of which about 2,200 (0.71%) showed an effect of 50% or more. Effects have a minus sign here. The list shows a part of the results.
Target: human ether-à-go-go-related gene (hERG) potassium channel (human, UniProt Q12809)
Test: primary screen, population patch clamp on CHO cells stably expressing hERG

Chain of human ether-à-go-go-related gene (hERG) potassium channel (Q12809 whole entry, looked up): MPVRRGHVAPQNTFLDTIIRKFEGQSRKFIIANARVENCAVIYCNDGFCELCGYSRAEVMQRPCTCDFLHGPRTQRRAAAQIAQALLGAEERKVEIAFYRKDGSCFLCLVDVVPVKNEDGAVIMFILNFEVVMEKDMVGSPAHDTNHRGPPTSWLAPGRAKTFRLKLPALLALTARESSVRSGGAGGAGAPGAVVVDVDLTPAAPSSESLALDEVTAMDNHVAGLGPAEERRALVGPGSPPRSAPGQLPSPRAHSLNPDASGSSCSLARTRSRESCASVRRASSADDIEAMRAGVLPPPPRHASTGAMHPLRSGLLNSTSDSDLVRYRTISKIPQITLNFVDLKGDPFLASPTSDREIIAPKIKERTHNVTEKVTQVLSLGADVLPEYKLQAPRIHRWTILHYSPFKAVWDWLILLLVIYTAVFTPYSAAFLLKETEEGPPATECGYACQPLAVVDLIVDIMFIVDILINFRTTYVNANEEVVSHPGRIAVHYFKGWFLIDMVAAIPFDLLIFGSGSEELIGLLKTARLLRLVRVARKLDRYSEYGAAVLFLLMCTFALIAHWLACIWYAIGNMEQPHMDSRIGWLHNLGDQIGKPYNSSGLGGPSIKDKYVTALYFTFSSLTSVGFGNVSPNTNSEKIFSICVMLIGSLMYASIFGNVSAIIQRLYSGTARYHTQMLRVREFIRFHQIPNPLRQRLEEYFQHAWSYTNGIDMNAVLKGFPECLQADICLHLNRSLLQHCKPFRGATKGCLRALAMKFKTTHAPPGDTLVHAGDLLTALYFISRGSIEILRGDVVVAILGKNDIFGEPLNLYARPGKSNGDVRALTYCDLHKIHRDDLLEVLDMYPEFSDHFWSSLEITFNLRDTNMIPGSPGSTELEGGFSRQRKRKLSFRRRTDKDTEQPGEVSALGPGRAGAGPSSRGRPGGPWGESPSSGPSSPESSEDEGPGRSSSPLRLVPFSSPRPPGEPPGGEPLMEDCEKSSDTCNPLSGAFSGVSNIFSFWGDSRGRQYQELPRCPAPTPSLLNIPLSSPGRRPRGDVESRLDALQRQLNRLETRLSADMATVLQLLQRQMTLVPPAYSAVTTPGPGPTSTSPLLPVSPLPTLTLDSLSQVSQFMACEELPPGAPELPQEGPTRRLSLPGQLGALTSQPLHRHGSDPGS

SMILES | hERG current change (%, negative = inhibition) at 1uM
CC(=O)NCCc1ccc(S(=O)(=O)Nc2cccnc2)cc1 | 15%
COC(=O)c1cnc(N2CCOCC2)nc1C(F)(F)F | 7.52%
O=C(Nc1cccc(F)c1)C1CCN(C(=O)c2ccc(Br)cc2)CC1 | -22.2%
CC(C)(C)c1ccc(C(=O)CC(Sc2ccc(Cl)cc2)C(=O)O)cc1 (centres unmarked) | 11.1%
O=C(CCCN1C(=O)/C(=C/c2ccccc2Cl)SC1=S)NNC(=O)c1ccc(Cl)cc1Cl | 13%
Cc1sc2nc(COC(=O)c3ccc(O)cc3)[nH]c(=O)c2c1C | 18.4%
Cc1ccccc1C(=O)NNC(=O)CCc1ccccc1 | 16.5%
CCOC(=O)c1sc(NC(=O)C(CC)OC(=O)C(CC(C)C)NC(=O)c2ccccc2)nc1C (centres unmarked) | 7.91%
O=C(Cn1c(=S)[nH]c2ccccc2c1=O)N1CCC2(CC1)OCCO2 | 12.5%
Cc1cccc(NC(=O)CSc2nccn2Cc2ccco2)c1 | 11.3%
CC(=O)c1c(C)[nH]c(C(=O)CN2CCN(S(=O)(=O)c3ccccc3[N+](=O)[O-])CC2)c1C | 5.11%
COc1ccc(CN(CC(=O)NCc2ccc3c(c2)OCO3)C(=O)c2csnn2)cc1 | -12.2%
COc1ccc(CN2CCN(C(C)C(=O)NC(C)c3ccc(F)cc3)CC2)cc1F (centres unmarked) | -17.3%
Cc1nn(C(C)C(=O)NCc2ccccc2Cl)c(=O)c2c1sc1ccccc12 (centres unmarked) | 4.93%
O=C(CNC1CCCC1)Nc1cc(Cl)ccc1[N+](=O)[O-].O=C(O)C(=O)O | 13.6%
COC(=O)c1cccc(C(=O)N2CCC(CO)(CCc3ccccc3)CC2)c1 | 3.49%
Cc1ccc(OCC(=O)Nc2ccc(Cl)cc2C(=O)c2ccccc2)cc1 | 9.29%
COc1ccccc1N1CCN(S(=O)(=O)c2ccc(F)cc2)CC1 | 4.4%
O=C(O)CCc1ccc(-c2ccccc2)n1CC1CCCO1 (centres unmarked) | 8.1%
Cc1ccc2oc(C(=O)N3CCCCCC3)c(C)c2c1 | 13.2%
Fc1ccc(Nc2nc(Oc3ccc4c(c3)OCO4)nc(N3CCOCC3)n2)c(F)c1 | 14.6%
CCNc1nc2c(c(=O)[nH]c(=O)n2C)n1Cc1ccc(F)cc1 | 14.6%
CCCNC(=O)/C(C#N)=C1\N=C(NC(=O)c2ccco2)c2ccccc21 | 11.6%

SMILES | hERG current change (%, negative = inhibition) at 1uM
CC(=O)C1=C(C)Nc2ncnn2C1c1cccc(OCc2ccccc2)c1 (centres unmarked) | 8.1%
CCCCCn1c(N)c(C(=O)NCCN2CCOCC2)c2nc3ccccc3nc21 | -0.506%
O=C(NCc1ccccc1)c1ccc2c(c1)C(=O)N(CC1CCCO1)C2=O (centres unmarked) | -8.09%
Cc1cc(C)c2oc(=O)cc(CN3CCCCC3)c2c1 | 13.9%
CN(C)c1ccc(/C=N/N(CCC(=O)NC(C)(C)C)C2=NS(=O)(=O)c3ccccc32)cc1 | 14.9%
COC(CN(C(=O)CCl)C(C(=O)NC1CCCCC1)c1ccc(C)cc1)OC (centres unmarked) | 0.13%
COCCN(C(=O)COC(=O)C1(C)CC1(Cl)Cl)c1c(N)n(Cc2ccccc2)c(=O)[nH]c1=O (centres unmarked) | 13.6%
COc1ccc(NC(=O)CSc2nnc3n2CCCCC3)cc1S(=O)(=O)N1CCOCC1 | -2.19%
O=C(COC(=O)c1ccc(Br)cc1)NCCc1ccccc1 | 13.3%
COc1ccccc1C(=O)COC(=O)Cc1c[nH]c2ccccc12 | -14.8%
COc1cc(/C=C/C(=O)OC(C)C(=O)NC2CCCCC2C)cc(Cl)c1OC (centres unmarked) | 11.4%
CC(=O)N1[C@H](Cc2ccccc2)C=C[C@]1(C)C(=O)NCc1ccc(C)o1 | 13.5%
CC(C)OCC(O)CN1CCC(Cc2ccccc2)CC1.Cl (centres unmarked) | -2.15%
COC(=O)c1ccc(NC(=O)CN2C(=O)CC(C)S(=O)(=O)c3ccccc32)cc1 (centres unmarked) | 12.2%
Cc1nc2ccc(Nc3nc4cc(S(=O)(=O)N5CCOCC5)ccc4o3)cc2s1 | 7.29%
Cc1cc(Cl)ccc1NC(=S)NCCCN1CCCC1=O | 9%
Cc1ccc(S(=O)(=O)N(CC(=O)NCc2ccco2)C2CCCCC2)cc1 | 0.77%
O=C(c1ccncc1)N1CCN(c2ccc(F)cc2)CC1 | 8.94%
Cn1c(=O)c2[nH]c(Nc3ccccc3)nc2n(C)c1=O | 3.11%
O=S(=O)(NCCC(c1ccc(F)cc1)c1ccco1)c1ccccc1 (centres unmarked) | 1.58%
COc1ccc(C(=O)N2CCN(c3ccccc3OC)CC2)cc1 | 0.513%
COc1cccc(NC(=S)/C(=C(\[O-])c2ccc(C)c([N+](=O)[O-])c2)[n+]2ccccc2)c1 | 1.28%
Cn1c(SCC(=O)Nc2ccc(NC(=O)c3cccc(F)c3)cc2)nnc1-c1ccncc1 | 18.5%

SMILES | hERG current change (%, negative = inhibition) at 1uM
c1cc2c3c(cccc3c1)NC1(CCCCCC1)N2 | 5.4%
Cc1ccc(S(=O)(=O)N(CC(O)CN2C(=O)NC(C)(C)C2=O)c2cccc([N+](=O)[O-])c2)cc1 (centres unmarked) | 10.7%
CCNC(=O)NC(=O)COC(=O)c1cccc(S(=O)(=O)N2CC3(C)CC2CC(C)(C)C3)c1 (centres unmarked) | 4.71%
O=C(NCCS(=O)(=O)NC1CCCC1)c1ccccc1 | 3.74%
CCCNC(=O)COc1coc(CN2CCN(Cc3ccccc3)CC2)cc1=O | 15.2%
COc1cccc(OC)c1C(=O)NC(=S)Nc1cc(-c2nc3ccccc3[nH]2)ccc1Cl | 3.68%
CN1CCN(c2ncnc3sc(-c4ccccc4)cc23)CC1 | -6.7%
CCOCCCNC(=O)c1cc2c(s1)-c1ccccc1SC2 | 11.3%
O=C(CSc1nccc(=O)[nH]1)Nc1ccc(F)c([N+](=O)[O-])c1 | 6.68%
C/C(=N/NC(=O)CSc1nc2ccccc2n1C)c1ccco1 | -2.8%
COC(=O)[C@@H](N)Cc1ccc(O)cc1 | 17.1%
COC(=O)CCc1n[nH]c(=O)[nH]c1=O | 13.4%
O=C(Nc1ncccc1O)c1ccc(S(=O)(=O)N2CCCCCC2)cc1 | 10.5%
CCn1ccnc1CC1COc2ccccc2O1.Cl (centres unmarked) | 11.1%
COC(=O)NC(Nc1sc2c(c1C(N)=O)CCCC2)(C(=O)OC)C(F)(F)F (centres unmarked) | 18.4%
C[C@]1(C(=O)O)Cc2oncc2C[C@@H]1C(=O)O | 9.66%
COC(=O)c1ccc(Cl)c(S(=O)(=O)N2CCCC2)c1 | 9.5%
Cc1cc(NC(=O)c2ccc3c(c2)C(=O)N(C2CCCCC2)C3=O)no1 | 5.87%
COc1ccc(NC2CCCN(Cc3cccc4cnccc34)C2)cc1 (centres unmarked) | 7.78%
COc1ccccc1NC(=O)CCn1cccc1 | 9.24%
CC(C)(C)C1CCc2c(C(=O)NNC(=O)CCC(=O)O)csc2C1 (centres unmarked) | 8.1%
CC(=O)c1ccccc1OCCn1nc(C(=O)O)c2ccccc2c1=O | 13.5%
COc1ccc(CN(C)CC(=O)NC(=O)NCc2ccccc2)c(OC)c1 | 1.13%

SMILES | hERG current change (%, negative = inhibition) at 1uM
O=C(NCC1CCCO1)c1cccc(NC(=O)c2cccs2)c1 (centres unmarked) | 10.5%
Cc1cccc2cc(CN(CC3CCCO3)C(=O)c3cccs3)c(=O)[nH]c12 (centres unmarked) | 12.7%
CCOC(=O)c1c(C)nc2ccccn12 | -9.94%
C=CCOc1ccc(CN(C)C(=O)CN2C(=O)c3ccccc3C2=O)cc1 | 8.43%
COCCSc1ccccc1C(=O)NCC1CCCO1 (centres unmarked) | 2.09%
CN1CCN(c2nc(-c3ccccc3)ncc2S(C)(=O)=O)CC1 | -0.369%
CCOC(=O)c1c(S(=O)(=O)Nc2ccc(CN3CCC(C)CC3)cc2)c(C)n(C)c1C | 11.1%
O=C(COC(=O)c1ccccc1O)NCCC1=CCCCC1 | 15.7%
Cc1cccc(NC(=O)c2cnn(C)c2)c1C | 4.28%
Br.COC(=O)c1ccc(OCCN2C3=NCCN3c3ccccc32)cc1 | -56.5%
C[N+]1(C)C2CC(OC(=O)[C@H](CO)c3ccccc3)CC1C1OC12.O=[N+]([O-])[O-] (some centres unmarked) | 14.6%
COc1ccc(CCN2C(=O)NC(NS(=O)(=O)c3ccccc3)(C(F)(F)F)C2=O)cc1OC (centres unmarked) | 4.35%
COc1ccc(S(=O)(=O)NCc2ccccn2)cc1NC(=O)c1ccc(Cl)cc1 | -47.8%
Cc1ccc(-c2nnc(SCC#CCOC(=O)c3cccs3)o2)cc1 | 14%
COc1cc(NS(=O)(=O)c2c(C(=O)N3CCOCC3)c(C)n(C)c2C)cc(OC)c1OC | 12.9%
CCOc1ccc(-n2c(SCc3ccc([N+](=O)[O-])cc3)nnc2-c2ccccc2)cc1 | 1.7%
O=C(COc1ncnc2ccc(Br)cc12)NCc1ccc2c(c1)OCO2 | 12.4%
FC(F)(F)c1ccnc(NCc2ccco2)n1 | 11.1%
Cc1cccc(NC(=O)C2CCCN(C(=O)NC3CCCCC3)C2)c1C (centres unmarked) | 4.4%
CCCN(CCC)C(=O)Cn1ccc(=N)c2ccccc21.Cl | 2.79%

— PMC4336329 (PLoS ONE, 2015)
